Data published in PubChem BioAssay AID1347165 (National Center for Advancing Translational Sciences (NCATS), 2019).
Values joined by “and” are separate entries in the source; they are usually repeats but may differ in a detail not shown here. Equal values may be shown once. In all, about 220,000 compounds went through this assay and about 5,700 (2.6%) were called active. The inconclusive results got no clear call from the source; some entries with a clear call stand among them for comparison. The call rests on the fitted dose curve; in most records, active means well fitted inhibition curve with a large enough effect; inconclusive means small, poorly fitted or top-dose-only effect; inactive means no such curve, though single readings can be large or run the other way. Potencies of inconclusive entries are doubtful fits and often do not repeat.

What follows are compounds tested against Lysine-specific demethylase 5B (Homo sapiens) (UniProt Q9UGL1) (assay: Primary screen for KDM5B Histone Demethylases FDH-coupled qHTS). Details: FDH-coupled NADH fluorescence (FDH is formaldehyde dehydrogenase); series mostly up to 57.7 µM.
Chain of UniProt Q9UGL1 (Q9UGL1 whole entry, looked up, the tested form may be a part): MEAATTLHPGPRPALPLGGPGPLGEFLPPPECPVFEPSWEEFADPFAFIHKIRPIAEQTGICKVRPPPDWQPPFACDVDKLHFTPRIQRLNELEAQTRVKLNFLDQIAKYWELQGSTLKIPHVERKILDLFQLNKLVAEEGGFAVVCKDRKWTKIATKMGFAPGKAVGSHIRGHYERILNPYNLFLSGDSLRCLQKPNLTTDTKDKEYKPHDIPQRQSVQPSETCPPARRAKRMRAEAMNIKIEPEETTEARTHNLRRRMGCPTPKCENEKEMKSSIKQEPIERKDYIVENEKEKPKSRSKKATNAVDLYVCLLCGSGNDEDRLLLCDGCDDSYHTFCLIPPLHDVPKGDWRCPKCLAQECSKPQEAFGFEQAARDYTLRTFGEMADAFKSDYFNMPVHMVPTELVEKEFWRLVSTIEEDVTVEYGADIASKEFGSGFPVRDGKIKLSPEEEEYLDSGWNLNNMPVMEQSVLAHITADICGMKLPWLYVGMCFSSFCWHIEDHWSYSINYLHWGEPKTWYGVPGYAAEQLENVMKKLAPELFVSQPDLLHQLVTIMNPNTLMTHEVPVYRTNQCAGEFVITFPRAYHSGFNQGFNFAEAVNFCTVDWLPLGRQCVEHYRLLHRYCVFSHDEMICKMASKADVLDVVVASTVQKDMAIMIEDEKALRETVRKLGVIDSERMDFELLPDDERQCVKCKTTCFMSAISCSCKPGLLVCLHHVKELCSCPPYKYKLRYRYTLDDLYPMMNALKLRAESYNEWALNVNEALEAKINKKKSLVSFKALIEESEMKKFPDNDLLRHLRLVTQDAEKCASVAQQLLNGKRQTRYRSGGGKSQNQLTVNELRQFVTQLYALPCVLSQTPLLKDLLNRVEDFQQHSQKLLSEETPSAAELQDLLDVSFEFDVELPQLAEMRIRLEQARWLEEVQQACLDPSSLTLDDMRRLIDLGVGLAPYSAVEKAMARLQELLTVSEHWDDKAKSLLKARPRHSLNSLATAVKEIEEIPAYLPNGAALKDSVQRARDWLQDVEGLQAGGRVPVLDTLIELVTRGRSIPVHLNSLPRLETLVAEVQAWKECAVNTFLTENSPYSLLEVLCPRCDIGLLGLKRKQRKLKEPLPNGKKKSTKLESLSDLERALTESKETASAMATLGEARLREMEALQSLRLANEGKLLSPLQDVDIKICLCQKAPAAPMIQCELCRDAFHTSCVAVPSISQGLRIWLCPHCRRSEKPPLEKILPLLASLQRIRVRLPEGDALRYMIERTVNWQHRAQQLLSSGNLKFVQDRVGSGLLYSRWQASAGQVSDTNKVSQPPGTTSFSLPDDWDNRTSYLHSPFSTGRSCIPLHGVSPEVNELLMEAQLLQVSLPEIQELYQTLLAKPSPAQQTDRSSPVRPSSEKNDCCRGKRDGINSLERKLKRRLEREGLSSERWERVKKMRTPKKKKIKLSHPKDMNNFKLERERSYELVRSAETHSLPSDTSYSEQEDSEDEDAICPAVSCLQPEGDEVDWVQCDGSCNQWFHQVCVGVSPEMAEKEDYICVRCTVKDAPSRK
In short: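 Inhibition is measured as reduced NADH fluorescence generation from FDH coupling to formaldehyde release. Truncated KDM5BΔAP at 200 nM final acts on H3K4me3 peptide (12.5 µM in substrate mix) in pH 7.5 HEPES buffer with Tween-20, 30 min, room temperature.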
Further: nearly all actives have a fitted effect of over 70% in size.
Potency means the concentration at half of the fitted maximal effect; tags describe the fitted curve by direction and shape.

Structure (SMILES)	Potency
CC#CCn1cc2c3c(cccc31)[C@H](CC(C)C)N[C@H](C(=O)N1CCC(O)CC1)C2	inconclusive: 28.2 µM [inhibitor, partial curve]
Cc1cc(=O)oc2cc(OC(C)C(=O)NCCc3ccc(S(N)(=O)=O)cc3)ccc12 (configuration not stated)	inconclusive: 22.4 µM [inhibitor, partial curve, poor fit]
Cc1cccc(CNC(=O)c2ncoc2-c2cccs2)c1	inconclusive: 22.4 µM [inhibitor, partial curve, poor fit]
CCN(CC)C(=O)COC(=O)c1ccccc1-c1ncc(-c2ccc(F)cc2)o1	inconclusive: 20 µM [inhibitor, partial curve, poor fit]
COC(=O)NC1CCN(c2nc3ncccc3o2)CC1	active: 28.2 µM and active: 35.5 µM
COc1ccc(OCC(=O)Nc2cc(-c3ccccc3F)nn2-c2ccccc2)cc1	inactive
CCc1ccc(CNC(=O)c2cc3cc(S(=O)(=O)N4CCCCC4)ccc3n2C)cc1	inconclusive: 25.1 µM [inhibitor, partial curve, poor fit]
CCCn1ccc2c(OCC(=O)Nc3cc(C)ccc3C)cccc2c1=O	inconclusive: 25.1 µM [inhibitor, partial curve, poor fit]
COc1ccc(-c2cc3c(=O)n(CCNC(=O)Cc4ccsc4)ccn3n2)cc1	active: 28.2 µM
O=C(NC1CCCc2c1[nH]c1ccccc21)c1ccc(Br)o1 (configuration not stated)	inconclusive: 10 µM [inhibitor, partial curve, poor fit]
CCOc1cccc(-c2nc(C(=O)Nc3ccc(OC)cc3)cs2)c1	inconclusive: 28.2 µM [inhibitor, single point]
Cc1ccc(CNC(=O)C2CCN(c3cnc4nccnc4c3)CC2)o1	inconclusive: 7.94 µM [inhibitor, full curve, poor fit]
CC(C)CNC(=O)COC(=O)c1ccc2ccccc2n1	inactive
COc1ccc(F)cc1CN1CCC(O)(CN2CCCCC2)C1 (configuration not stated)	inconclusive: 10 µM [inhibitor, partial curve, poor fit]
COc1ccc(CNc2ncnc3c2CN(C2CCNC2)C(=O)CN3C)cc1OC (configuration not stated)	inactive
CN(C)c1ccc(CN2CCC23Cc2ccccc2NC3=O)cc1 (configuration not stated)	inconclusive: 31.6 µM [inhibitor, partial curve, poor fit]
Cn1nc(C(=O)NC2CCCN(c3cc(-c4ccc(F)cc4)[nH]n3)C2)c2ccccc21 (configuration not stated)	inconclusive: 22.4 µM [inhibitor, partial curve, poor fit]
CC(C)=CC(=O)Nc1cc(Cl)cc(Cl)c1	inactive
COc1cccc(-c2cn3c(n2)sc2cc(C(=O)NCCCc4ccccc4)ccc23)c1	inconclusive: 31.6 µM [inhibitor, partial curve, poor fit]
Cc1cc(N)ccc1C(C)C	inactive
COc1ccccc1CN(C)C(=O)CC1C(=O)NCCN1CC1CCCCC1 (configuration not stated)	inconclusive: 28.2 µM [inhibitor, partial curve, poor fit]
Cc1nc2scc(CC(=O)NC(C)C)n2c(=O)c1-c1cc(C)n(-c2cccc(Cl)c2)n1	active: 28.2 µM
COc1cc(CN(C(=O)c2cc(NC(C)=O)cc(NC(C)=O)c2)C2CC2)ccc1OC(F)F	inactive

Structure (SMILES)	Potency
O=C(Cc1ccccc1)Nc1sc2c(c1C(=O)Nc1ccccc1)CCCCC2	inconclusive: 15.8 µM [inhibitor, partial curve, poor fit]
COC[C@H]1C[C@@H](NC(=O)c2ccc3c(c2)OCO3)[C@H](O)[C@@H]1O	inconclusive: 20 µM [inhibitor, partial curve]
CC(=O)N1CCCN(C(=O)[C@@H]2Cc3cn(C)c4cccc(c34)[C@H](CC(C)C)N2)CC1	inconclusive: 31.6 µM [inhibitor, single point]
Cc1csc2nc(SCC(=O)Nc3ccccc3F)[nH]c(=O)c12	inconclusive: 39.8 µM [inhibitor, partial curve, poor fit]
O=S(=O)(Nc1nc2ccccc2nc1NCc1ccccc1)c1cccs1	inconclusive: 20 µM [inhibitor, partial curve, poor fit]
COc1ccc(NC(=O)[C@H]2CN(Cc3ccccc3)C[C@H]2C(=O)O)cn1	inconclusive: 28.2 µM [inhibitor, single point]
COc1cccc(C(=O)OCc2nc(N)c3ccccc3n2)c1	inactive
Cc1noc2c(-c3ccc(CO)cc3)cc(-c3cccs3)nc12	inconclusive: 35.5 µM [inhibitor, partial curve, poor fit]
c1cncc(CN2CCNc3cc(-c4cn[nH]c4)ncc3C2)c1	inconclusive: 31.6 µM [inhibitor, partial curve, poor fit]
Cc1cccc(-c2nc3cc(NC(=O)c4cccs4)ccc3o2)c1	inconclusive: 39.8 µM [inhibitor, single point]
COCCCn1c(=N)c(C(=O)NCC2CCCO2)cc2c(=O)n3cc(C)ccc3nc21 (configuration not stated)	inconclusive: 3.98 µM [inhibitor, full curve, poor fit]
CCc1nc(-c2c3n(c(=O)n(Cc4cc(=O)n5ccccc5n4)c2=O)CCCC3)no1	active: 22.4 µM
CC(C)N1CCCC2(CCN(C(=O)c3cn[nH]c3-n3cnnn3)C2)C1=O (configuration not stated)	inactive
CSC1=N/C(=C\c2cccc(Oc3ccccc3)c2)C(=O)S1	inactive
O=C(COC(=O)c1cc2ccccc2oc1=O)NCc1ccccc1Cl	inactive
COc1cc(Cl)ccc1C(=O)N1CCC2(CC1)NC(=O)N(c1ccccc1)N2	inconclusive: 20 µM [inhibitor, partial curve, poor fit]
COc1ccc(Nc2cc(C)nc(Nc3ccc(NC(=O)CC(C)C)cc3)n2)cc1	inactive
CCC(CC)C(=O)Nc1sc2c(c1C#N)CCCC2	inactive
COC(=O)c1ccc2c(=O)[nH]c(CSc3nnc(-c4cccc(C)c4)n3Cc3ccco3)nc2c1	inactive
COc1cc(Cl)ccc1-c1cccc(COc2cnc3c(ccn3CC(=O)O)c2)c1	active: 35.5 µM
Cn1cc(-c2cnc3[nH]cc(CC(=O)Nc4cccc(OC(F)(F)F)c4)c3c2)cn1	inconclusive: 35.5 µM [inhibitor, single point]
COc1ccc(CNC(=O)c2ccc(NC(=O)N3CC4CCCN4c4ccccc43)cc2)cc1 (configuration not stated)	inconclusive: 28.2 µM [inhibitor, partial curve, poor fit]
CCN1CCN(C(c2ccc(OC)cc2)c2c(O)cc(C)n(Cc3ccco3)c2=O)CC1 (configuration not stated)	inconclusive: 22.4 µM [inhibitor, partial curve, poor fit]

Structure (SMILES)	Potency
CCN(CC)c1nc2c(-c3cccc(Br)c3)nnn2c2ccccc12	inconclusive: 25.1 µM [inhibitor, partial curve, poor fit]
CCC(C(=O)NCCn1ccn2nc(-c3cccc(OC)c3)cc2c1=O)c1ccccc1 (configuration not stated)	inactive
O=C(CCC[C@@H]1[C@H]2CCCN3CCC[C@@H](CN1Cc1cccnc1)[C@@H]23)NCCN1CCOCC1	inconclusive: 20 µM [inhibitor, partial curve, poor fit]
CC1CCCCN1C(=O)Cn1c(=O)n(-c2ccc(Cl)cc2)c(=O)c2c3c(sc21)CCC3 (configuration not stated)	inconclusive: 12.6 µM [inhibitor, partial curve, poor fit]
CCc1cccc(NC(=O)c2ccc3c(c2)N(C)C2CCCCCN2C3=O)c1 (configuration not stated)	inconclusive: 35.5 µM [inhibitor, partial curve, poor fit]
O=Cc1c(Br)cc(Br)c(O)c1Br	inactive
COc1cc2cc(CNc3ccccc3)c(=O)n(CC(=O)Nc3ccccc3)c2cc1OC	inconclusive: 11.2 µM [inhibitor, partial curve, poor fit]
O=C(c1cc2n(n1)CC(c1ccc(Cl)cc1)OC2)N1CCN(c2ccccc2Cl)CC1 (configuration not stated)	inactive
CCCNS(=O)(=O)c1ccc2nc(NC(=O)c3ccc(F)cc3)sc2c1	inconclusive: 4.47 µM [inhibitor, full curve, poor fit]
CCn1nnc2cc(C(=O)Nc3ccc(Cl)cc3C)ccc21	inconclusive: 14.1 µM [inhibitor, partial curve, poor fit]
CCc1cccc(-n2c(=O)c3cccnc3n2CC(=O)NCc2ccccc2)c1	inconclusive: 35.5 µM [inhibitor, partial curve, poor fit]
COCCOC(=O)C1=C(C)N=C2SC=C(CC(=O)N3CCOCC3)N2C1c1cccc(OC)c1 (configuration not stated)	inconclusive: 39.8 µM [inhibitor, partial curve, poor fit]
O=C(NCCC1=CCCCC1)c1ccc2c(c1)N(Cc1ccccc1F)C(=O)c1ccccc1S2=O (configuration not stated)	inconclusive: 2 µM [inhibitor, partial curve, poor fit]
CCCSc1nc2c(c(=O)[nH]c(=O)n2C)n1CC(O)COc1ccccc1C (configuration not stated)	inactive
O=C(Nc1ccccc1Cl)N(Cc1cccc(O)c1)C1CCC(O)CC1 (configuration not stated)	inactive
COCc1ncc2c(n1)CCCN(CC(=O)NCc1cccc(F)c1)C2=O	inactive
CCOC(=O)COC(=O)c1cc2c(s1)-c1ccc(OC)cc1CC2	inactive
C[S+](=O)([O-])NCCn1ccc2cc(OC3CCN(C(=O)C4CCCC4)CC3)cnc21	active: 35.5 µM
COc1cc(C(=O)OCc2cc(=O)n3nc(C4CCCCC4)sc3n2)cc(OC)c1OC	inactive
CCCCN(Cc1ccccc1)c1ccc(NS(=O)(=O)c2ccc(C)cc2C)cc1C(=O)O	inactive
CCN1CC(=O)C=C(C)C1	inconclusive: 39.8 µM [inhibitor, single point]
